# The supplement of paper PMC9174493
# This is one part of the list. Single values of this set are uncertain. Values with irradiation are relative to irradiated vehicle.
# Assays:
# [1] = tested on: A549-Dual; test: NF-kB reporter (SEAP) activity, viability-corrected, relative to vehicle (fold change vs vehicle); higher = more activation of STING-IRF / NF-kB immune response reporter; settings: 10 µM
# [2] = tested on: A549-Dual; test: ISRE reporter (Lucia luciferase) activity, viability-corrected, relative to vehicle (fold change vs vehicle); higher = more activation of STING-IRF / NF-kB immune response reporter; settings: 10 µM
# 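Wherever NF-kB reporter (SEAP) activity, viability-corrected, relative to vehicle is given: viability correction based on the alamar blue assay, with concentrations leaving 10% survival or less dropped.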
SMILES,NF-kB reporter ([1]; irradiation: 8 Gy/4 fr),NF-kB reporter ([1]; irradiation: none),ISRE reporter ([2]; irradiation: 8 Gy/4 fr),ISRE reporter ([2]; irradiation: none)
CC(Cc1cc2c(c(C(N)=O)c1)N(CCCO)CC2)NCCOc1ccccc1OCC(F)(F)F (stereo not drawn) [Silodosin],0.827,0.861,0.878,0.702
CCOC(=O)C1=C(C)NC(C)=C(C(=O)OC)C1c1cccc(Cl)c1Cl (stereo not drawn) [Felodipine],0.486,0.872,0.55,0.894
Clc1ccc(C(Cn2ccnc2)OCc2ccsc2Cl)c(Cl)c1 (stereo not drawn) [Tioconazole],0.32,0.55,0.294,0.443
Cl.Cn1cc(C(=O)C2CCc3nc[nH]c3C2)c2ccccc21 (stereo not drawn) [Ramosetron Hydrochloride],0.784,0.964,0.862,0.91
CC(CCC(=O)[O-])C1CCC2C3C(=O)CC4CC(=O)CCC4(C)C3CC(=O)C12C.[Na+] (stereo not drawn) [Sodium Dehydrocholate],0.791,0.691,0.691,0.553
NC(C=O)C(O)C(O)C(O)CO.O=S(=O)(O)O (stereo not drawn) [Glucosamine sulfate],1.07,0.997,0.912,0.788
COc1ccccc1OCCNCC(O)COc1cccc2[nH]c3ccccc3c12.O=P(O)(O)O (stereo not drawn) [Carvedilol Phosphate],0.913,0.818,1.12,1.21
CC1=Nc2ccc(Cl)cc2S(=O)(=O)N1 [Diazoxide],0.846,0.892,0.688,0.471
Cn1c(=O)c2c(ncn2CCO)n(C)c1=O [Etofylline],0.649,0.773,0.76,0.664
CCCCC(C)(O)C/C=C/C1C(O)CC(=O)C1CCCCCCC(=O)OC (stereo not drawn) [Misoprostol],0.786,0.577,0.773,0.498
CC1CNc2c(cccc2S(=O)(=O)NC(CCCNC(=N)N)C(=O)N2CCC(C)CC2C(=O)O)C1.O (stereo not drawn) [Argatroban Monohydrate],1.16,2.73,0.112,0.567
COC(=O)C1=C(C)NC(C)=C(C(=O)OCC(C)C)C1c1ccccc1[N+](=O)[O-] (stereo not drawn) [Nisoldipine],0.545,0.788,0.496,0.422
Cc1nnc(SCC2=C(C(=O)O)N3C(=O)C(NC(=O)Cn4cnnn4)C3SC2)s1 (stereo not drawn) [Cefazolin],0.845,1.04,0.698,0.854
COc1ccc(C(=O)CCC(=O)O)c2ccccc12 [Menbutone],1.2,0.679,1.15,0.651
NCCCCC(NC(=O)C1CCCN1C(=O)C1CSSCC(NC(=O)CNC(=O)CNC(=O)CN)C(=O)NC(Cc2ccc(O)cc2)C(=O)NC(Cc2ccccc2)C(=O)NC(CCC(N)=O)C(=O)NC(CC(N)=O)C(=O)N1)C(=O)NCC(N)=O (stereo not drawn) [Terlipressin Acetate],1.06,1.77,0.788,1.32
CCc1ccc(Cc2ccc3c(c2)C2(OC3)OC(CO)C(O)C(O)C2O)cc1.O (stereo not drawn) [Tofogliflozin(CSG 452)],0.702,0.82,0.629,0.746
O=C(/C=C/c1ccccc1)OCc1ccccc1 [Benzyl cinnamate],0.768,0.675,0.764,0.542
CC1(C(=O)[O-])CCC2(C)CCC3(C)C(=CC(=O)C4C5(C)CCC(OC(=O)CCC(=O)[O-])C(C)(C)C5CCC43C)C2C1.[Na+].[Na+] (stereo not drawn) [Carbenoxolone Sodium],1.44,0.854,1.33,0.836
COc1cc2c(cc1OC)C1Cc3ccc(OC)c(OC)c3CN1CC2 (stereo not drawn) [Tetrahydropalmatine],0.723,1.35,0.651,0.715
CC1(C(=O)O)CCC2(C)CCC3(C)C(=CC(=O)C4C5(C)CCC(O)C(C)(C)C5CCC43C)C2C1 (stereo not drawn) [Enoxolone],0.661,1.21,0.624,0.693
CN1CC(O)C2=C/C(=N/NC(N)=O)C(=O)C=C21 (stereo not drawn) [Carbazochrome],0.836,0.832,0.752,0.605
O=C1Nc2ccc(Cl)cc2C(C#CC2CC2)(C(F)(F)F)O1 (stereo not drawn) [Efavirenz],0.62,1.18,0.601,0.92
CCn1cc(C(=O)O)c(=O)c2cc(F)c(N3CCNCC3)nc21 [Enoxacin Sesquihydrate],0.873,0.973,0.852,0.776
COCCOC(=O)C1=C(C)NC(C)=C(C(=O)OC(C)C)C1c1cccc([N+](=O)[O-])c1 (stereo not drawn) [Nimodipine],0.793,0.862,0.8,0.668
O=C1N=C([O-])NC1(c1ccccc1)c1ccccc1.[Na+] [Phenytoin Sodium],1.35,1.12,1.06,0.938
CC(C)C(N)C(=O)OCCOCn1cnc2c(=O)[nH]c(N)nc21.Cl (stereo not drawn) [Valaciclovir HCl],0.644,0.877,0.61,0.773
O=C(NCCN1CCOCC1)c1ccc(Cl)cc1,0.528,0.735,0.646,0.838
